Experimental data published in article PMC6919601, “Identification of Plasmodium dipeptidyl aminopeptidase allosteric inhibitors by high throughput screening” (PLoS ONE, 2019).
In all, about 110,000 compounds went through this assay and about 230 (0.21%) showed an effect of 50% or more. This is one part of the list.

biological target: DPAP1 (Plasmodium falciparum, UniProt Q8IIJ9); assay: primary screen, percent inhibition; read by cleavage of a fluorogenic dipeptide substrate; higher = more effect of the substance; parameters: species or system P. falciparum D10 trophozoite lysates; single well
Sequence (Q8IIJ9 whole entry, looked up): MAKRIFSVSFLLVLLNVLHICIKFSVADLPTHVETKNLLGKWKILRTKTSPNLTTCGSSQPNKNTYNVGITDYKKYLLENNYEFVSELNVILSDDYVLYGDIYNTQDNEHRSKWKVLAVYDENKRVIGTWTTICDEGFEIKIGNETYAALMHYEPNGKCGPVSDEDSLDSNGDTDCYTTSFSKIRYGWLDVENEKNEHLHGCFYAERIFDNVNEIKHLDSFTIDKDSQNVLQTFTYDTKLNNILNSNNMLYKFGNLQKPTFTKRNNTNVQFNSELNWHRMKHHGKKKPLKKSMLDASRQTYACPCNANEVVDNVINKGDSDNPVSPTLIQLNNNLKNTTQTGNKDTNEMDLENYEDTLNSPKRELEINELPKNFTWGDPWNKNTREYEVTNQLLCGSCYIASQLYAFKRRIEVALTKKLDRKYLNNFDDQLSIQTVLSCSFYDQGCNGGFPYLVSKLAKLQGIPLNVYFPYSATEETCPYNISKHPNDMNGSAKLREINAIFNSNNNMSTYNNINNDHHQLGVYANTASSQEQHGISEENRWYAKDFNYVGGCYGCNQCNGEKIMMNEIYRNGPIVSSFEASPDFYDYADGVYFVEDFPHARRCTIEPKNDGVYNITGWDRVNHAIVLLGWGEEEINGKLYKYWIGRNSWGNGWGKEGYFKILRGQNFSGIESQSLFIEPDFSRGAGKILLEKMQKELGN
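Further: 30 min substrate incubation versus DMSO and 10 µM JCP410 controls.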

Compound | % Inhibition @ 10 uM [%]
O=C(O)c1ccc(COc2ccc(Cl)cc2Cl)cc1 | -7.9
CN1C(=O)NC(NC(=O)c2ccc(C(C)(C)C)cc2)(C(F)(F)F)C1=O (stereo not shown) | -8.28
CCO/C(O)=C1\C(C)=NC2=C(C(=O)CCC2)C1c1cccc([N+](=O)[O-])c1 (stereo not shown) | -1.78
C(#Cc1cccc2ccccc12)CN1CCOCC1 | 1.13
O=C(NCc1cccc(Cl)c1)C1CCN(c2ncnc3c2nc2n3CCCCC2)CC1 | -6.67
NC(=O)c1cc(NC(=O)c2ccccc2Cl)c(Cl)cc1Cl | -9.87
CCC(=O)n1nc(-c2ccco2)nc1SCc1ccccc1 | 0.778
Cn1c2c(c(=O)n(C)c1=O)C(c1cccc(Cl)c1)C(C#N)=C(N)O2 (stereo not shown) | -0.736
O=C1c2ccccc2C(=O)N1CCCc1nc(-c2ccccc2)no1 | 3.51
CCOC(=O)N1CCC(NCc2ccc(Cl)cc2Cl)CC1 | -2.03
Cc1ccc(NC(=O)c2ccc(CNS(=O)(=O)c3cccc(Cl)c3)cc2)cc1 | 5.69
COc1ccc(C2CC(c3ccccc3OC(F)F)Nc3ncnn32)cc1 (stereo not shown) | -5.05
CC1CN(C(=O)Cn2cc(S(=O)(=O)Cc3cccc(Cl)c3)c3ccccc32)CC(C)O1 (stereo not shown) | -6.47
C=CCNC(=O)CN(c1ccc(C)cc1)S(=O)(=O)c1ccc(F)cc1 | 1.35
C/C(=N/O)c1[nH]c(C)c(/C(C)=N\O)c1C | 3.01
CCOc1ccccc1Nc1nc(N)nc(CN2CCCCC2C)n1 (stereo not shown) | -4.52
O=C(NC1CCCCCC1)C1CCN(S(=O)(=O)c2cccc3nsnc23)CC1 | -5.22
CC(=O)N1CCN(CCCc2ccccc2)CC1 | -1.86
CCOC(=O)N1CCC(NC(=O)c2cc3c(=O)oc4ccc(C)cc4c3s2)CC1 | 9.02
COc1ccc(S(=O)(=O)Nc2cc(Cl)cc(Cl)c2)cc1 | 0.135
COC(=O)c1ccc2oc(=O)c(S(=O)(=O)c3ccc(F)cc3)cc2c1 | 0.44
Cc1ccc2cc3cc(C(=O)N4CC(C)CC(C)C4)oc3nc2c1 (stereo not shown) | -5.22
COc1ccc(CNc2cccc(N(C)C)c2)cc1 | 2.7
COc1ccc(F)c(C2NCc3ccccc3-n3cccc32)c1 (stereo not shown) | -3.34
CCCCc1ccc(NS(=O)(=O)c2ccc(OC)cc2)cc1 | 3.47
NCCCNC12CC3CC(CC(C3)C1)C2 | -0.424

Compound | % Inhibition @ 10 uM [%]
Cc1c(C(=O)N2CCOCC2)oc2c1-c1nn(CC(=O)NCCC(C)C)cc1CC2 | 1.45
CC1(c2ccc3ccccc3c2)NC(=O)NC1=O (stereo not shown) | -5.28
OC1CCCN(C/C=C/c2ccccc2)C1 (stereo not shown) | 8
CC(C)(C#N)C(OC(=O)c1ccco1)c1ccccc1 (stereo not shown) | 0.00178
O=C(O)c1ccccc1-c1ccccc1C(=O)NCc1cccs1 | 1.88
CCC(Oc1ccccc1)C(=O)Nc1cc(C)ccc1C (stereo not shown) | -2.22
Cn1c(=O)c2c(nc(CN3CCN(Cc4ccccc4)CC3)n2Cc2cccc(Cl)c2)n(C)c1=O | -0.499
CCOC(=O)c1c(C)[nH]c(C)c1S(=O)(=O)N1CCC(N2CCCCC2)CC1 | -2.15
CCN(CCN(C)C)Cc1ccc2c(c1)c1ccccc1n2CC | 3.35
O=C(COc1ccccc1Cl)N1CCN(C(=O)c2ccco2)CC1 | -1.43
Cc1n[nH]c(C)c1CCCCOc1cccc(Cl)c1 | -4.3
COc1ccc2nc(NC(=O)CSc3nnc4n(N)cnn34)sc2c1 | -0.597
Cc1cccc(N2CCN(C(=O)c3c(-c4ccccc4)noc3C)CC2)c1C | 7.78
COc1ccc(CN2CCN(Cc3cccc(C)c3)CC2)cc1OC | -4.33
Cc1nn(C(=O)COc2ccc(F)cc2)c(C)c1Sc1ccccc1 | 3.72
Cc1ccc(S(=O)(=O)N(CC(=O)N2CCCCCC2)C2CCCCC2)cc1 | -0.553
O=C(NCCCNC1CCCCC1)c1cc2ccccc2[nH]1 | 1.74
COc1cccc(OC)c1C(=O)N(C)c1ccccc1 | -0.833
O=C(CN(C1CCCCC1)S(=O)(=O)c1ccccc1)N1CCN(c2ccccc2F)CC1 | 2.76
CCN(CC)C(=O)C1=C(C)Nc2nc3ccccc3n2C1c1cc(Br)ccc1OC (stereo not shown) | 1.02
CCOc1ccc(CC(=O)Nc2cc(C)cc(C)c2)cc1OCC | 1.83
COc1cc(Br)c(CCNC(=O)OC(C)(C)C)cc1OC | -0.132
O=C(NCC1(c2ccccc2)CCCC1)c1ccccc1 | 4.61
Cc1nc2c(-c3ccccc3)c(C)nn2c(C)c1CC(=O)N1CCc2ccccc2C1 | 0.953
CC(CNC(=O)C12CC3CC(CC(C3)C1)C2)OC(=O)c1cccs1 (stereo not shown) | -5.96
COc1ccc(OC)c(-n2nnc(-c3nc(-c4ccncc4)no3)c2N)c1 | 5.47

Compound | % Inhibition @ 10 uM [%]
Cn1cc(C(=O)NCC2(c3ccccc3)CCCC2)c2c3ccccc3n(C)c2c1=O | -1.36
Cc1ccc(/C=N/n2c(C)nnc2C)cc1 | 3.06
O=C(COc1ccc(S(=O)(=O)N2CCCC2)cc1)NCCC1=CCCCC1 | -9.2
CC1(C)CC2=Nc3ccccc3NC(c3cccc(F)c3)C2=C(O)C1 (stereo not shown) | -5.38
O=S(=O)(NC1CC1)c1ccc2[nH]c(O)nc2c1 | -3.5
Cc1cc2nc3s/c(=C\c4ccc(N(C)C)cc4)c(=O)n3c2cc1C | -3.38
Cc1c(Cl)cccc1NC(=O)c1cccc(Cl)c1 | 5.29
COc1ccccc1C(=O)N/C(=C\c1ccc(Br)cc1)c1nc2ccccc2[nH]1 | 9.01
COc1cccc2cc(-c3cn(-c4cccc(C)c4)c(S)n3)c(=O)oc12 | 20.1
COc1ccc(CNC2CCN(C)CC2)cc1 | -2.34
O=C(Cn1c(SCc2cccc(F)c2)nc2ccncc21)N1CCCCCC1 | -2.37
O=C(CSc1ncccc1C(=O)NCc1ccccc1Cl)NCc1ccccc1 | -1.99
O=C(CCCn1sc2ccccc2c1=O)N1CCCC1 | 2.06
CC(C)CCNC(=O)C(NC(=O)C1CCC(C)CC1)C(C)C (stereo not shown) | 3.34
COc1ccc(Cl)cc1-c1nc(/C=N/c2ccccn2)c(O)o1 | -0.945
CC(C)CC(=O)N1CCN(Cc2ccc(C(F)(F)F)cc2)CC1 | 8.36
O=S(=O)(c1ccc(Cl)cc1)N1CCN(c2ccc(F)cc2)CC1 | -1.22
CC1CC(=O)C2=C(C1)OC(N)=C(C#N)C2c1cccc(F)c1 (stereo not shown) | 3.1
COCCNC(=O)c1cc(-c2ccc(F)cc2)nc2ccccc12 | 0.718
CCc1ccccc1N(CC(=O)NC)S(=O)(=O)c1ccccc1 | 5.25
O=C(NCCCCc1ccccc1)Nc1ccccc1 | -3.56
CCOc1cc(-c2cc(C(=O)O)c3c(-c4ccc(Br)cc4)[nH]nc3n2)ccc1O | -2.07
CCOc1ccc(-c2cn3c(n2)sc2cc(C(=O)NCCCN4CCOCC4)ccc23)cc1 | 12.1
N#CCNC(=O)[C@H](CC1CCCCC1)NC(=O)c1ccc(N)cc1 | -1.83
C(CNC1CC2CCC1C2)CN1CCOCC1 (stereo not shown) | -1.82
Cc1nc2nc(-c3ccc(Cl)cc3Cl)nn2c(C)c1CCC(=O)NCCCN1CCCC1=O | -0.465

Compound | % Inhibition @ 10 uM [%]
COc1ccccc1OCC(=O)Nc1cccc(C#N)c1 | -4.66
CC1CCN(S(=O)(=O)c2ccc(NC(=O)COc3ccc(Cl)cc3Cl)cc2)CC1 | 0.583
CNC(=S)N1CCn2cccc2C1c1ccncc1 (stereo not shown) | -1.12
CCC1(CC)Cc2ccccc2C(=O)N1 | 2.65
CCn1c2ccccc2c2cc(CNc3cc(-c4ccccc4)ccc3OC)ccc21 | -2.34
Cc1ccc2nc(-c3ccc(C)s3)cc(C(=O)O)c2c1 | 2.42
CCOc1ccc(C2CC(=O)N=C(NC(=O)c3ccccc3)N2)cc1 (stereo not shown) | 0.6
CC(NC(=O)COc1ccc(Br)cc1)C12CC3CC(CC(C3)C1)C2 (stereo not shown) | 0.161
CNc1nc2nonc2nc1NC | 5.39
Cc1[nH]c(-c2ccc3c(c2)OCO3)nc1C(=O)O | -4.74
Cc1nccc2nc(O)c(C(=O)NCCN(CC(C)C)CC(C)C)cc12 | 0.718
CC1CCc2c(sc(NC(=O)c3cccc(F)c3)c2C#N)C1 (stereo not shown) | -0.725
CC1=C(C(=O)Nc2ccc(Cl)cc2)C(c2cccc(Cl)c2)NC(=O)N1 (stereo not shown) | -4.6
CCOC(=O)c1ccc(CN(CCN2CCOCC2)S(=O)(=O)c2ccc(Cl)cc2)cc1 | 1.42
c1ccc(-c2nc(NCCN3CCOCC3)c3ccccc3n2)cc1 | -1.26
CC(=O)C(C)n1c(CN(C)Cc2ccccc2)nc2c1c(=O)n(C)c(=O)n2C (stereo not shown) | -2.91
O=C(CCCC(=O)NCCC1=CCCCC1)NCCC1=CCCCC1 | -5.28
CCC(=O)Nc1ccc2nc(SCC(=O)N3CCN(C)CC3)sc2c1 | -0.994
COc1ccc(CC(=O)N2CCOCC2)cc1OC | -0.82
Cn1c(=O)n(Cc2ccccc2Cl)c(=O)c2c1nc1n2CCN1Cc1ccccc1 | 1.97
CCC(C)NS(=O)(=O)c1c[nH]c(C(=O)OC)c1 (stereo not shown) | -4.07
CCCNC(=O)C12CC3CCC(CC(C3)C1)C2 | 7.96
CCOc1cc(/C=C2/SC(=O)N(CC)C2=O)c(Cl)cc1OC | -0.62
COc1ccc(C2C(C(=O)c3ccc(F)cc3)=C(O)C(=O)N2CC2CCCO2)cc1 (stereo not shown) | -1.22
O=C(NCCCc1ccccc1)C1CCN(c2nnc(-n3cccc3)s2)CC1 | 1.15
